Among all 50,000 compounds or so, about 800 (1.6%) showed an effect of 50% or more. This is one part of the list.

This experiment has as its target Bcl-2-like protein 10 (Homo sapiens) (UniProt Q9HD36). Description: Phenotype converters, Bcl-B/TR3 peptide binding displacement, primary biochemical FP (AID 1240).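 Also: 0% = Bcl-B with tracer peptide and DMSO and 100% = tracer peptide lacking Bcl-B.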 The conditions noted are these: GST-Bcl-B / FITC-TR3 peptide fluorescence polarization; stronger effect = higher value; compound at 3.75 mg/L. In general terms: In fluorescence polarisation assays a small probe gives low polarisation when free and higher when bound to something large.
UniProt Q9HD36, sequence (Q9HD36 whole entry, looked up): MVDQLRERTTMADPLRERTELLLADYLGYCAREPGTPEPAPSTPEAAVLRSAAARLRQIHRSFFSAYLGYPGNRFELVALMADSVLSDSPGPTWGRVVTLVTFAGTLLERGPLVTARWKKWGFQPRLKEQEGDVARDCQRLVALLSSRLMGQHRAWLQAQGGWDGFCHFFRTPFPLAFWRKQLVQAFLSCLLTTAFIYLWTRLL
For the compound `Cc1cc(-c2ccccc2)c2ccc(O)cc2n1`, the displacement turned out to be 12%.

Consider `O=C(c1ccc([N+](=O)[O-])cc1)N1CCN(Cc2cccc(Cl)c2)CC1`, for which the displacement was -21.7%.

In the case of `COc1ccc2c(c1OC)C(=O)N(c1nc(-c3ccccc3)cs1)C2=O`, the displacement is -14.2%.

Take `COC(=O)c1ccc(COc2ccc3c(C)cc(=O)oc3c2)cc1`: the displacement was 7.9%.

Take `COc1ccccc1OCC(=O)Nc1ccc2c(c1)OCCO2`: the displacement was found to be 2.2%.

As to `O=C(Nc1cccc2ccccc12)N1CCCCCC1`, the displacement came to 1.9%.

For `CCCNC(=O)C1CC(=O)N(c2ccc(Br)cc2)C1` (centres undefined), the displacement was 13.5%.

On to `CCOc1ccc(N(CC(=O)NCCSc2ccc(Cl)cc2)S(C)(=O)=O)cc1`, for which the displacement is -12.1%.

As for `Cc1cc(Cl)ccc1OCC(=O)Nc1ccccc1O`, the displacement came out at 25.3%.

For `COc1ccccc1C(=O)Nc1nc(-c2ccc(S(=O)(=O)N3CCOCC3)cc2)cs1`, the displacement came to 10.4%.

As for `COc1cccc(OC)c1C(=O)NC1CCCCC1`, the displacement came out at 6.5%.

As to `CC1=NOC(=O)/C1=C/c1ccc(C)cc1`, the displacement came out at 5.8%.

Turning to `Cc1ccccc1C(=O)NNC(=O)c1cccc([N+](=O)[O-])c1`, the displacement is -7.7%.

Regarding `COc1cc(C=O)c(OC)cc1Br`, the displacement was 13.6%.

Turning to `COc1ccccc1C(=O)O/N=C1/CCCc2c1ccc(OC)c2[N+](=O)[O-]`, the displacement was found to be 19.7%.

`O=C(NC(NC(=S)Nc1ccc(I)cc1)C(Cl)(Cl)Cl)c1cccc([N+](=O)[O-])c1` (centres undefined): the displacement was -1.3%.

As for `O=[N+]([O-])c1ccc(OC(CNS(=O)(=O)c2ccc(Cl)cc2)c2ccccc2)cc1` (centres undefined), the displacement was -4.6%.

Consider `CCOc1nc(-c2ccccc2)cc(-c2ccc(Br)cc2)n1`, for which the displacement was -2.2%.

As for `CN1C(=O)/C(=C\c2nc3ccccc3c(=O)n2C)c2cc(Br)ccc21`, the displacement is -7%.

As for `CC(C)(C)c1ccc(/C=C/C(=O)NCc2cccnc2)cc1`, the displacement was -0.3%.

For `Nc1nonc1NC(=O)N/N=C\c1ccccc1F`, the displacement is -7.4%.

As to `CCN(CC)S(=O)(=O)c1cc(C(=O)Nc2ccc(C(=O)O)cc2)ccc1Cl`, the displacement was -9.6%.

As for `CCNC(=O)C(=O)Nc1ccc(Cl)cc1`, the displacement stood at 7.3%.

With `O=C(CC1(O)C(=O)Nc2ccc(Br)cc21)c1ccc2ccccc2c1` (centres undefined), the displacement was 11.5%.

For `CC1=CC(C)(C)Nc2ccc(OC(=O)Cc3cccc4ccccc34)cc21`, the displacement is 1.4%.

Consider `Cc1ccc2nc(-c3cccc(NC(=O)c4cccs4)c3)oc2c1`, for which the displacement was found to be 5.2%.

Consider `COc1ccccc1C1C(C#N)=C(N)Oc2c1sc1ccccc21` (centres undefined), for which the displacement turned out to be 13.2%.

As to `CCOC(=O)C1CCN(C(=O)c2ccccc2[N+](=O)[O-])CC1`, the displacement is -11.6%.

Take `O=C(/C=C/c1ccc(-c2cccc([N+](=O)[O-])c2)o1)c1ccc(F)cc1`: the displacement worked out at 3.4%.

Turning to `Cc1cc(OCC(=O)NC2C3CC4CC(C3)CC2C4)ccc1Br` (centres undefined), the displacement was -6.7%.

Turning to `O=C(Nc1ccc2oc(-c3cccc(Cl)c3Cl)nc2c1)c1ccco1`, the displacement was -18.1%.

`O=C(NCc1ccncc1)C(=O)NCc1ccccn1`: the displacement is -18.8%.

As to `COc1ccc(C)cc1NS(=O)(=O)c1ccc(Cl)cc1`, the displacement is 10.5%.

As for `O=C1c2ccccc2C(O)(c2ccc(Br)cc2)N1c1ccccc1` (centres undefined), the displacement stood at 5.5%.

With `O=C(N/N=C/c1sc2ccccc2c1Cl)c1ccncc1`, the displacement was determined as 6.9%.

With `c1ccc(-c2nc(N3CCCCC3)nc3ccccc23)cc1`, the displacement was -5.4%.

On to `O=C(CC1Nc2ccccc2NC1=O)NCc1ccccc1` (centres undefined), for which the displacement was -4.7%.

Turning to `O=C(O)c1ccc(-c2ccc(Br)cc2)o1`, the displacement is -2.2%.

Consider `CCCCNCCCCCOc1ccc(C)c(C)c1`, for which the displacement amounted to 0.8%.

With `O=C(CN(Cc1ccccc1)S(=O)(=O)c1ccccc1)NCc1ccncc1`, the displacement is 14.5%.

For the compound `CCCC(=O)Nc1ccc(NC(=O)c2cc(Br)ccc2Cl)cc1`, the displacement came out at 13.6%.

With `CCOC(=O)/C(C#N)=C/c1sccc1C`, the displacement was -10.1%.

Turning to `CCCN(CCC)c1ccc(/C=N\NC(=O)C2COc3cc4ccccc4cc3O2)cc1` (centres undefined), the displacement is -5.7%.

In the case of `COc1ccc(C(=O)Nc2ccc3nn(-c4ccc(C)cc4)nc3c2)cc1Br`, the displacement came to 26%.

Turning to `Cc1ccc(OCC(=O)Nc2ccc(C)c(Cl)c2)c(Br)c1`, the displacement was -4.5%.

Consider `O=C(c1ccc2nc3c4ccccc4c4ccccc4c3nc2c1)N1CCOCC1`, for which the displacement was found to be 18.3%.

For `COC(=O)c1c(C)oc2ccc(O)cc12`, the displacement came out at 18.3%.

On to `CC(C(=O)O)N1C(=O)/C(=C/c2cccs2)SC1=S` (centres undefined), for which the displacement worked out at 9.1%.

As to `O=C(CC(=O)NCc1ccccc1)NCc1ccccc1`, the displacement came to 2.7%.

For the compound `CCOc1ccc(N2C(=O)NC(=O)/C(=C\c3cc(C)n(-c4cccnc4)c3C)C2=O)cc1`, the displacement is -2.4%.

As for `COc1ccc(OC)c(N(CC(=O)N2CCc3ccccc3C2)S(=O)(=O)c2ccccc2)c1`, the displacement is 5.2%.

In the case of `COC(=O)c1ccc(C(=O)OC)c(NC(=O)/C=C/c2ccccc2)c1`, the displacement is 8.7%.

For the compound `CC1(C)CC(=O)C2=C(C1)OC1=C(C(=O)CC(C)(C)C1)C2c1ccc(OCC(=O)O)cc1`, the displacement was 6.4%.

With `CC(C)=C1C2C=CC1C1C(=O)N(c3ccc(C)c(C)c3)C(=O)C21` (centres undefined), the displacement stood at 12.7%.

As for `COc1ccc(OC)c(NC(=O)c2ccccc2F)c1`, the displacement was 1%.

`CC(=O)Nc1ccccc1-c1nn[nH]n1`: the displacement stood at 1%.

Consider `O=C(CN(c1cccc(Br)c1)S(=O)(=O)c1ccccc1)Nc1ccc(Cl)cc1`, for which the displacement came to 3%.

Regarding `O=C(Nc1nc2ccccc2n1CCN1CCCC1)c1ccc(Cl)cc1`, the displacement was -10.4%.

Turning to `COc1ccc(C2CC(=O)C3=C(C2)Nc2ccccc2NC3c2ccccc2C)cc1OC` (centres undefined), the displacement is 4.1%.

Take `C/C(=N\NC(N)=O)C1CC1(C)C(C)(C)C` (centres undefined): the displacement was found to be 13.6%.

As for `Cc1cc(C)c(S(=O)(=O)N(C)Cc2ccccc2)c(C)c1`, the displacement is -11.3%.

As for `Cc1cccc(N2C(=O)c3ccc(-c4nc5ccccc5c(=O)o4)cc3C2=O)c1`, the displacement stood at 2.4%.

In the case of `CC(C)CNC(=O)CN(c1ccccc1)S(=O)(=O)c1ccccc1[N+](=O)[O-]`, the displacement was found to be 13%.

With `O=C(Nc1cccc(F)c1)c1ccc([N+](=O)[O-])cc1`, the displacement was found to be 3.2%.

Consider `COCc1cc(C)nc(SCC(=O)NC(C)(C)C)c1C#N`, for which the displacement was 2.6%.

As for `Cc1cccc(N2CCN(C(=S)c3ccccc3)CC2)c1`, the displacement worked out at 11.9%.

For the compound `O=C(c1cccc(Br)c1)N1CCN(c2ccc(F)cc2)CC1`, the displacement came out at 10.9%.

In the case of `C/C(=N/NC(=O)c1cccnc1)c1cc(O)ccc1O`, the displacement is -12%.

On to `COC(=O)c1ccc(/C=N/N=C2\C(=O)Nc3ccccc32)cc1`, for which the displacement was -5.5%.

`CCc1ccc(-c2nc(-c3cccnc3)no2)cc1`: the displacement was -6.7%.

For `CCOc1ccc(/C=C2\C(=O)NC(C)=C2C(=O)OC)cc1`, the displacement worked out at 10.8%.

`CCNC(=O)NC(C(=O)OC)C12CC3CC(CC(C3)C1)C2` (centres undefined): the displacement was -10.1%.

For the compound `CCCCOc1ccc(C(=O)NCCC2(O)CCOC(C)(C)C2)cc1` (centres undefined), the displacement is 6.6%.

As for `Cc1ccc(C(=O)N2CCN(c3ccc([N+](=O)[O-])cc3)CC2)cc1C`, the displacement is 6%.

(Values after PubChem BioAssay AID1240 (Sanford-Burnham Center for Chemical Genomics, 2008).)
